Measurements from PMC4336329 (PLoS ONE, 2015).
The whole screen tested about 310,000 compounds, of which about 14,000 (4.5%) showed an effect of 50% or more. The effect is printed as a negative number. Some of the results follow.

What follows are molecules tested against human ether-à-go-go-related gene (hERG) potassium channel (human, UniProt Q12809) (assay: primary screen, population patch clamp on CHO cells stably expressing hERG).
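Further: peak tail current of the secondary pulse compared with the same well before compound.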

Chain of human ether-à-go-go-related gene (hERG) potassium channel (Q12809 whole entry, looked up): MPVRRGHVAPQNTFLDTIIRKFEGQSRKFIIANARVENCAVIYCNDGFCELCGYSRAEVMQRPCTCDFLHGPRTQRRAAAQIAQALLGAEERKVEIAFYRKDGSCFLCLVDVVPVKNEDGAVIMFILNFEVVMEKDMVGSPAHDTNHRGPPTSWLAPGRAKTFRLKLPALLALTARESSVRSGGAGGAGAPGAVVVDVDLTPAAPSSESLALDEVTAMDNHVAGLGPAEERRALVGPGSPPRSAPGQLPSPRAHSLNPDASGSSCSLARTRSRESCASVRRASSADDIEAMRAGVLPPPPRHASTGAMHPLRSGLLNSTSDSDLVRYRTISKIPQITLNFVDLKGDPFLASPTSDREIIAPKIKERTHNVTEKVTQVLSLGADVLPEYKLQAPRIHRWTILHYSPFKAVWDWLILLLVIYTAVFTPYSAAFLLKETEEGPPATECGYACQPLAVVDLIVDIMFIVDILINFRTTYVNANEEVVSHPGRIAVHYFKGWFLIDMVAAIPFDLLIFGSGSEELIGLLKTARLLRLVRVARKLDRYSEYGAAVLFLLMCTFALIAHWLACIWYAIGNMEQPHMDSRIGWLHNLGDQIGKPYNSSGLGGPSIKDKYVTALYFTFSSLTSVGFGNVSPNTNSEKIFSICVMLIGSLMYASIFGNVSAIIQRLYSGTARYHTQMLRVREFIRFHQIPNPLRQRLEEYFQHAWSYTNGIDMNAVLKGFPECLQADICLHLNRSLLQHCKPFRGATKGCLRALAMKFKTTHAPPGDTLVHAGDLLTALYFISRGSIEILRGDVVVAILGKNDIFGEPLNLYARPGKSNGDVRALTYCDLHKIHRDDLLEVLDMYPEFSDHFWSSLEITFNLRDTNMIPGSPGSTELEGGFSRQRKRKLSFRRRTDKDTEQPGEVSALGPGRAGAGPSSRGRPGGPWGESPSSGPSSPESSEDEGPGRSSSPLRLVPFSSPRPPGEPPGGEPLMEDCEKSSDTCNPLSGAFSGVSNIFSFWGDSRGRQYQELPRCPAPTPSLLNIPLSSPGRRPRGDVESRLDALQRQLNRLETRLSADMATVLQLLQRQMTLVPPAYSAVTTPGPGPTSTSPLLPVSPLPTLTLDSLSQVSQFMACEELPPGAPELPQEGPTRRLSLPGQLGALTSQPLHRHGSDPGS

| SMILES | hERG current change (%, negative = inhibition) at 10uM |
| --- | --- |
| COc1cccc(-c2nc(N3CCCCC3C)c3ccccc3n2)c1O (centres unmarked) | 17.8% |
| COc1ccccc1OCCCCCNCCO | 2.82% |
| CCOc1ccc(CN2CCN(Cc3cnc(N4CCOCC4)s3)CC2CCO)cc1 (centres unmarked) | -39.8% |
| CCC1CCCCN1C(=O)CSc1nc2c(cnn2-c2ccc(C)cc2)c(=O)[nH]1 (centres unmarked) | 20.1% |
| Cc1cc(Nc2ccc(F)cc2Cl)n2ncnc2n1 | -3.01% |
| C=C(C)c1cccc(C(C)(C)NC(=O)N2CCN(C/C=C/c3ccccc3)CC2)c1 | -62.9% |
| COc1ccccc1NS(=O)(=O)c1ccc(C(N)=O)cc1 | 9.94% |
| O=C(CSc1ccc(-c2ccc(F)cc2)nn1)N1CCCCC1 | -21% |
| O=C1N=C2SCCN2/C1=C\c1ccc(Cl)cc1 | -15.5% |
| Cc1ccc(-c2cc(Cc3cccs3)c(=O)[nH]n2)cc1 | 15.4% |
| Cc1cccc(NC(=S)NCc2ccc(F)cc2)c1 | 12.1% |
| COc1ccc(N(CC(=O)NC2CCCCC2)C(=O)CCCC(=O)Nc2ccccn2)cc1 | -65.9% |
| C1CCCN(CCCCN2CCCCCC2)CC1.Cl | -2.21% |
| COc1cc2c(cc1OC)CN(C(=O)COc1ccccc1C#N)CC2 | 15.4% |
| COc1cccc(C2(c3cccc(OC)c3)CC2C(=O)Nc2ccc(F)cc2)c1 (centres unmarked) | 6.06% |
| CCC1CSC(Nc2ccc(C(=O)/C=C/c3cccc(C)c3)cc2)=N1 (centres unmarked) | 14.4% |
| CCCCCCCCOc1ccc(C(=O)O)cc1 | 13.3% |
| COc1ccc(C(=O)CSc2nnc3ccccn23)cc1OC | 17.1% |
| O=C(c1cccs1)N1CCN(c2nc3ccc([N+](=O)[O-])cc3s2)CC1 | -7.47% |
| CCOc1ccccc1N1CC(C(=O)N2CCc3ccccc32)CC1=O (centres unmarked) | -5.81% |
| CCOC(=O)C1C(=O)N(C)C2(C)CC1c1ccccc1O2 (centres unmarked) | 11.5% |
| O=C1C(O)=C(O)C(=O)c2ccccc21 | 0.0396% |
| CC1(C)OC(=O)C2(Cc3ccccc3N3CCCCC32)C(=O)O1 (centres unmarked) | -8.47% |

| SMILES | hERG current change (%, negative = inhibition) at 10uM |
| --- | --- |
| O=C(NCCC1CCCCN1S(=O)(=O)c1ccc(F)cc1)C(=O)NCc1ccccn1 (centres unmarked) | -11.9% |
| Nc1c(C(=O)c2ccccc2)oc2ccc([N+](=O)[O-])cc12 | -0.269% |
| CCN(CC)Cc1cc(C(C)=O)ccc1OCC(C)C | -31.5% |
| Cc1ccc(NC(=O)c2cc(CC(C)C)nc3ccccc23)cc1 | 11% |
| CCOC(=O)c1c(NC(=O)C2CC=CCC2C(=O)O)sc(C)c1CC (centres unmarked) | 2.37% |
| CC(C)NC(=O)c1ccccc1NC(=O)CN(c1ccc2c(c1)OCO2)S(C)(=O)=O | 1.97% |
| Cc1noc(C)c1COc1ccc(C(=O)OCC(=O)N2CC(=O)Nc3ccccc32)cc1 | 4.54% |
| O=C(Cn1ncc2c3ccccc3n(Cc3ccccc3F)c2c1=O)NC1CC1 | 10.5% |
| Cc1ccccc1NC(=O)N1CCC(C(=O)c2ccc(F)cc2)CC1 | -16.3% |
| CN(C)C=O.O=C1CN(C(=O)CN2C(=O)NC3(CCCCC3)C2=O)c2ccccc2N1 | 35.7% |
| COC(=O)[C@H]1C[C@@H]1[C@H](NC(=O)c1cccnc1)c1ccccc1 | 3.74% |
| CCCCN(CC)CCCNC(=O)c1cc2cc3ccc(OC)cc3nc2o1 | -64.5% |
| COc1ccc(CCC(=O)Nc2ccc(-c3noc(-c4ccc(OC)c(OC)c4)n3)cc2)cc1 | 19.9% |
| CS(=O)(=O)N(CC(=O)NCc1ccncc1)c1ccc(Cl)c(Cl)c1 | -17.8% |
| CC1(C)NC(=O)N(c2ccccc2Cl)C1(C)NO (centres unmarked) | -5.5% |
| CC(C)CCNC(=O)CN(Cc1ccccc1)C(=O)CCC(=O)Nc1ccccn1 | -19.7% |
| Cc1ccc(-c2nnc(-c3cccc(NC(=O)c4cccs4)c3)o2)cc1 | -13.9% |
| CCOC(=O)N1CCN(C(=O)CNC(=O)c2ccc(Cl)cc2Cl)CC1 | -20% |
| COc1ccc(CN2CCN(CC(O)Cn3c4ccccc4c4ccccc43)CC2)cc1 (centres unmarked) | -75.2% |
| COc1ccc2c(c1)CC[C@@H]1[C@@H]2CC[C@]2(C)C(=O)CC[C@@H]12 | 7.61% |
| Cc1ccc(C(=O)N/C(=C\c2ccccc2)C(=O)NCC2CCCO2)cc1 (centres unmarked) | -24.3% |
| CCCc1nc2c(nnn2Cc2ccccc2)c(=O)[nH]1 | 9.17% |
| CC(C)c1ccc(-n2nnnc2SCC(=O)NC2CC2)cc1 | -0.709% |

| SMILES | hERG current change (%, negative = inhibition) at 10uM |
| --- | --- |
| COc1ccc(NC(=O)c2ccc(S(=O)(=O)C(F)F)cc2)c(OC)c1 | -29.8% |
| COc1ccccc1CNC(=O)COC(=O)c1n[nH]c2ccccc12 | -9.37% |
| Cc1ccc(C2=CC(c3ccccc3)n3ncnc3N2)cc1 (centres unmarked) | -15.8% |
| CC(C)CCN1C(=O)c2ccc(C(=O)NCC3CCCO3)cc2C1=O (centres unmarked) | -8.48% |
| Cc1ccc(C(=O)N(c2ccccc2)C2CC(C)N(C(=O)c3ccco3)c3ccccc32)cc1 (centres unmarked) | -12.2% |
| CCC(C)NC(=O)CCS(=O)(=O)c1ccc(Br)s1 (centres unmarked) | 8.89% |
| Cc1ccc(-c2csc3ncnc(SCC(=O)Nc4nnc(C)s4)c23)cc1 | -4.31% |
| Cc1cc(C)c(C(=O)C2OC(=O)C(C)(C)C(=O)C2(C)C)c(C)c1 (centres unmarked) | -1.91% |
| COS(=O)(=O)[O-].Cn1c(Cc2ccccc2)[n+](C)c2ccccc21 | 6.5% |
| O=C(CC1C(=O)NC2CCCCC2N1C(=O)c1ccc([N+](=O)[O-])cc1)Nc1ccccc1 (centres unmarked) | -34.4% |
| CC(C)NC(=O)c1cc2cc([N+](=O)[O-])ccc2s1 | 13.6% |
| CC(C)CCNC(=O)COc1ccc(C(=O)c2ccccc2)cc1 | -23.8% |
| O=S(=O)(Cc1nc2ccccc2s1)c1ccccc1 | 0.281% |
| CC(=O)c1cccc(NC(=O)CSCc2ccccc2)c1 | -8.1% |
| Cc1cc(S(=O)(=O)N(Cc2ccccc2F)C2CC2)ccc1-n1cnnn1 | -14.8% |
| COc1ccc(OC)c2sc(NC(=O)c3cccc(N4C(=O)CCC4=O)c3)nc12 | 4.6% |
| O=S(=O)(NCc1cccs1)c1ccc(Br)cc1 | -12.2% |
| O=C(Nc1c2c(nn1-c1ccccc1)CS(=O)(=O)C2)c1cccs1 | -20% |
| Cc1ccc(N(O)C(=O)OCCNC(=O)Nc2ccccc2)cc1 | -0.0127% |
| COc1ccnc(Oc2ccccc2)c1C#N | 4.39% |
| O=C(Cc1c(Cl)cccc1Cl)Nc1ccncc1 | -11.9% |
| CCC1(C)Cc2ccccc2-c2nc3n(c(=O)c21)CC(C(=O)O)S3 (centres unmarked) | 13.5% |
| Cc1ccc(C(=O)C(C)OC(=O)C2CCN(c3ccc(C(F)(F)F)cn3)CC2)cc1C (centres unmarked) | 3.79% |

| SMILES | hERG current change (%, negative = inhibition) at 10uM |
| --- | --- |
| CCn1c(-c2nn(-c3ccc(C)cc3)ccc2=O)n[nH]c1=S | 10.7% |
| O=C1c2ccccc2NC(c2cc(Cl)cc(Cl)c2O)N1Cc1cccnc1 (centres unmarked) | -7.02% |
| CN1C(C(=O)NCCc2cccs2)CC2Cn3c(nc4cc5ccccc5cc43)C21 (centres unmarked) | -65.9% |
| CC(C)(C)C(=O)Oc1cc(N)n(S(=O)(=O)c2ccccc2)n1 | 9.2% |
| CCOC(=O)CSc1snnc1-c1ccccc1 | -5.35% |
| Cc1cccc(OCCSc2nc(N)cc(N)n2)c1 | 1.33% |
| COc1ccccc1CCc1nnc(CCC(=O)NCCCOc2cccnc2)o1 | 5.77% |
| CC(=O)c1ccc(OC(=O)CCc2nc3ccccc3s2)cc1 | 21% |
| CCOc1cc2c(cc1OCC)-n1cccc1C(c1ccc(OC)c(O)c1)NC2.Cl (centres unmarked) | -12.4% |
| COc1ccc(C(=O)CCNc2ccc(F)cc2)cc1 | 21.5% |
| CC(C)Oc1ccc(C(=O)Nc2cccc3cccnc23)cc1 | 26.9% |
| Cc1ccc(CSc2nc3ccncc3n2CC(=O)Nc2cc(C)cc(C)c2)cc1 | 7.38% |
| CCOc1ccc(-c2c(C(=O)N/N=C/c3ccc(C)o3)nnn2-c2nonc2N)cc1 | 21.8% |
| COc1ccc(NC(=S)NCc2ccc(S(N)(=O)=O)cc2)c(OC)c1 | 1.34% |
| CN(C)c1ccc(N/C=C/C(=O)C(C)(C)C)cc1 | 15.9% |
| O=C(NNC(=S)Nc1ccc(Br)cc1)c1ccc(N2CCOCC2)c([N+](=O)[O-])c1 | -6.3% |
| O=C(N/N=C/c1cccc(OCc2ccccc2)c1)c1ccc(Br)cc1 | 0.881% |
| Cc1ccc(C(=O)C2CCN(CC(=O)N3CCN(c4ccc(F)cc4)CC3)CC2)cc1 | -73.7% |
| CCOC(=O)C1CCN(c2c([N+](=O)[O-])c(C(Cl)Cl)nn2-c2ccccc2)CC1 | -9.15% |
| CCN(CC)S(=O)(=O)c1ccc2oc(C(=O)NCC3COc4ccccc4O3)c(C)c2c1 (centres unmarked) | -9.06% |
